Data: the supplement of paper PMC10126150
Sequences with one replicate were seen in a single cluster, so their values are uncertain.

Tested on: ATP
Assay: switch fluorescence ratio, 500 uM ATP over buffer (Cy3 cluster intensity, sum of 5 cycles each) (fold (ratio)); higher = stronger signal-on switching upon ATP binding; sequences stand for … in TCGTCGGCAGCGTCAGATGTGTATAAGAGACAGTTTTTTTTTTTTTTTTTTTTTTTTT…TC
Conditions: aptamer strand: ATP DNA aptamer (quencher-CACCTGGGGGAGTATTGCGGAGGAAGG + anchor), 100 nM annealed; ATP concentration: 500 uM; one replicate
Procedure, shortened: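 The fluorescence ratio divides summed target-cycle Cy3 intensity by summed buffer-cycle Cy3 intensity for each cluster and is averaged per switch-domain sequence. Cy3-labelled switching-strand clusters on a modified Illumina MiSeq flow-cell were annealed to 100 nM quencher-labelled ATP aptamer, then imaged in selection buffer and again after 15 min with 500 uM ATP at 22 °C. Five such cycles were run, with NaOH stripping and re-annealing between them, and clusters outside 100-1000 RFU were excluded.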
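Also: ATP exposure 15 min at 22 °C before imaging.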

Sequence | switch fluorescence ratio
ACACGAGGTT | 0.994
CATAAAGTAC | 1.22
GAGGCGAGAG | 1.12
CGGCTCGTTG | 1.04
TTTTCATGAA | 0.968
CAAAGTTTGA | 1.01
CGGCCGCGTG | 1.06
CGGGCATAAG | 1.02
CACTGGTCGA | 0.99
AGGCTAAGGC | 1.05
GATTGGTCCG | 1.01
TCGGTGCAGC | 0.935
GGGGAACACG | 1.03
ATTTTCAAAA | 1.02
CAAGACTCTT | 0.986
TGGCTTTCTG | 1.03
CAGACTTGGA | 1.06
GCGGTGGACA | 0.974
CTAGCTTGTC | 1.06
GGCGGCCGG | 0.985
AGTGATTATC | 1.02
GGGTCAAGAT | 0.98
TAAAAGGTGG | 0.964
TTGTCAGGTA | 0.986
TGACCCCCAT | 6.39
GATGCAGTCG | 1.01

Sequence | switch fluorescence ratio
GAATTCTTCC | 1.79
GTCAATGCAG | 0.953
ATGGGAGCTA | 0.989
GCTAACTCTT | 1.03
TCGCGCACCC | 1.27
CAATAGTCAT | 0.956
TACTATCAGG | 1.23
ATGAGTATAT | 0.981
ATGTACTGG | 1.12
AGCCAGAGGA | 0.977
GTTGTCCATC | 1
TCAGCAGGC | 1.75
TCGGGGCACC | 1.05
GCTCTTGTTG | 1.01
GATCACAAGA | 1.05
ATCTGACACT | 1
GATCCCTCGT | 0.991
AGATCTCTCC | 1.07
CAAAAATTAG | 0.991
ATATGGACTA | 1.01
GGCAGTTGGT | 1.01
AATAGTCTTA | 0.993
CAATAGTTC | 1.01
TTCGTGACTC | 1
AACGGGGACC | 1.09
CTAGGTGCGG | 1

Sequence | switch fluorescence ratio
CAGTAATATC | 2.3
CCTTGTTAAC | 1.12
TATTGTTGCT | 1.07
ACATACTCTC | 1.28
AAAAGCCCAC | 1.02
GTTCTAGACT | 1.04
CCGATCACCA | 1.12
AAACGATGAG | 1
TGTGAGAGTA | 1
TAGGGTGTAG | 0.951
ATCGGACAGA | 1.01
CAGTCCTGCT | 0.974
CAATTTGAAT | 0.99
GGTTAAATCT | 1.03
AAGCCTCTAT | 0.967
AGCAAGGTAC | 2.61
GTGACCAGGA | 1.03
GGCACTGACG | 1.22
ATGGTACGGA | 1.1
TGCGTTGGTC | 1.08
TTAGTGTTA | 1
TCCTACACA | 1.45
AAATTCGACA | 0.99
GAAGCACACT | 1.12
CGTTGTTTCG | 1.03
TGTCGTGCT | 1.02

Sequence | switch fluorescence ratio
GCACCACCGG | 1
AACGGGTACT | 1.14
AAATCAGGTC | 1.01
TGATGCCCCG | 1.01
AGTCGCTGTT | 1.02
TGGGTACATC | 1.03
GGAGAGCGGG | 0.982
GCTTCGCAAA | 2.2
CGCGACTTAC | 3.71
TCAGGTGCAT | 2.25
GAATATAGTA | 1.02
CGAGACTGTT | 1.03
ACGTTCACGT | 0.995
GGAGTACTGC | 1.13
ACTATGGGCT | 0.969
GGCTCAAGCG | 1.06
GCTGGGTCCC | 1.02
TCGCAATTTT | 4.03
GGTGGGATTG | 1.04
TGGTATCTT | 0.998
TATGGGTCCT | 1.03
ATGCAAACAG | 1.05
CATGGATCGC | 1.01
GATGCAACTA | 1.18
CTTATGCTGA | 1.04
ATTGTAGGGG | 1.02

Sequence | switch fluorescence ratio
AACGATTCAA | 1.03
CACCGTATCT | 1.1
CCTTAAAT | 1.02
TATCTATTAT | 1.01
CTTTATTGAT | 0.962
GCTTAGTTCT | 0.979
AATTACGCCT | 1.12
TCGCGTCGGG | 0.991
GCTTGGCCGG | 0.987
TTCTGGGTT | 1.03
CCCCTCATCG | 1
TTGCTACGC | 1.22
TCTGGCGCAG | 1.06
TATCTATTGT | 0.989
ACTATAGGTG | 1.24
TTTCCGTGCG | 1.14
TTCTCATGGT | 0.976
AATCAGATTC | 1
ACTGTCTAGT | 0.97
TTAGCATTAA | 1.9
TTTCGCTGCG | 0.941
CGTGGCTTCA | 1.02
CATGGCTTCT | 0.976
CTGTTAGATT | 1
TGGAAGCGGA | 1.01
CCATGCAGTG | 1.05

Sequence | switch fluorescence ratio
TCATTAAGAG | 1
GGCCGAAA | 0.962
GCTCTAGATA | 1.17
CACGGTGACA | 1.09
CAGCTACGTA | 0.979
GCAATAGGTG | 1.58
GGGTTGAAAT | 1.06
AACCTTTGAC | 1.24
CAGAACGGGG | 0.957
CGCATTTACA | 1.64
ATGTAAGCTT | 1.01
GCCGCGCAAA | 1.01
CTTAAAGTCT | 1.02
GTAGATGCAC | 1.03
ATGATTCACG | 1.04
AGAACTCGGA | 0.969
CGAGATTGGA | 1.04
GAACGCGGGC | 1.32
TAAACTTCA | 1.22
GAAGCGCCTA | 1.04
GCGGGCGTGC | 1.01
CATTTATGGA | 0.98
CCTGTGGTCG | 1.04
